Reference: PMC8725944, “Design and synthesis of chromone-nitrogen mustard derivatives and evaluation of anti-breast cancer activity” (Journal of Enzyme Inhibition and Medicinal Chemistry, 2021)

Tested on: human normal breast cell line MCF-10A
Assay: cells
Details: 72 h, read-out: IC50 MCF-10A

Structure (SMILES)	IC50 [µM]
COc1ccc2occ(CO)c(=O)c2c1 [Compound 16]	> 40
COc1ccc2occ(CN)c(=O)c2c1 [Compound 20]	> 40
Cc1ccc2occ(CN)c(=O)c2c1 [Compound 19]	> 40
Cc1ccc2occ(CO)c(=O)c2c1 [Compound 15]	> 40
